Laboratory results: a collection of fitness landscapes (doi:10.1016/j.celrep.2020.107928)
The full ranking holds about 81,000 sequences; the median of “one-hybrid fitness for binding parS DNA” is about -0.17, and the highest 2% start at about 0.51. Some of the results follow.

B1: Caulobacter ParB omega fusion; a variant is named by its letters at X, in order, B8GW30 (parent)
chain: MESVVVGEPGMSEGRRGLGRGLSALLGEVDAAPAQAPGEQLGGSREAPIEILQRNPDQPRRTFREEDLEDLSNSIREKGVLQPILVRPSPDTAGEYQIVAGERAWRAAQRAGLKTVPIMVRELDDLAVLEIGIIENVQRADLNVLEEALSYKVLMEKFERTQENIAQTIGKSXSHVANXMRLLXLPDEVQSYLVSGELTAXHARAIAAAADPVALAKQIIEGGLSVRETEALARKAPNLSAGKSKGGRPPRVKDTDTQALESDLSSVLGLDVSIDHRGSTGTLTITYATLEQLDDLCNRLTRGI

Variants of: B1
Assay: one-hybrid fitness for binding parS DNA (scaled: cognate 1, non-cognate 0); higher = stronger binding
Conditions: with parS DNA site
How it was run: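 The reporter was HIS3, with the binding site 19 bp from the promoter, in E. coli USO used for bacterial one-hybrid selection of Caulobacter ParB libraries with four specificity codons randomised. Growth was on M9 lacking histidine, with 0.1 mM IPTG and 5 mM 3-AT, for 48 hours at 37°C. Illumina sequencing covered plasmids before and after selection; three replicate libraries were pooled and variants with under 10 reads dropped. A fitness score is the log change in variant-to-wild-type read ratio, rescaled to the cognate and non-cognate references.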

Variant | one-hybrid fitness for binding parS DNA
ADSL | ≤ 0.2
DLSW | ≤ 0.2
YSAL | ≤ 0.2
YWKT | ≤ 0.2
VLTC | ≤ 0.2
RLMY | 0.49
EASV | ≤ 0.2
TTIS | ≤ 0.2
RAGP | ≤ 0.2
EPPN | ≤ 0.2
DSET | ≤ 0.2
KPTD | ≤ 0.2
QRTQ | ≤ 0.2
ACHI | ≤ 0.2
GPDS | ≤ 0.2
PNYR | ≤ 0.2
PIEE | ≤ 0.2
AMKV | ≤ 0.2
PYRP | ≤ 0.2
RYWD | ≤ 0.2
YHQC | ≤ 0.2

Variant | one-hybrid fitness for binding parS DNA
KMTL | ≤ 0.2
LTMD | ≤ 0.2
FCIL | ≤ 0.2
SPHL | ≤ 0.2
DMAI | ≤ 0.2
ASTY | ≤ 0.2
MVFR | ≤ 0.2
MYQT | ≤ 0.2
VSPS | ≤ 0.2
SRQP | ≤ 0.2
VGEV | ≤ 0.2
FASI | ≤ 0.2
IEHL | ≤ 0.2
YSVM | ≤ 0.2
HQHL | ≤ 0.2
PLKT | ≤ 0.2
REYL | ≤ 0.2
KCDR | ≤ 0.2
LPAP | ≤ 0.2
TWLC | ≤ 0.2
KGRN | ≤ 0.2

Variant | one-hybrid fitness for binding parS DNA
HRVG | ≤ 0.2
RYVL | ≤ 0.2
NTST | ≤ 0.2
PHMR | ≤ 0.2
HHPF | ≤ 0.2
EGKR | ≤ 0.2
TQVT | ≤ 0.2
HHNT | ≤ 0.2
DNRN | ≤ 0.2
WGHG | ≤ 0.2
QKPQ | ≤ 0.2
AYSR | ≤ 0.2
RAIN | 0.301
ANIE | ≤ 0.2
ATHS | ≤ 0.2
KGFT | ≤ 0.2
HSKA | ≤ 0.2
TIKC | ≤ 0.2
SNPQ | ≤ 0.2
VWHC | ≤ 0.2
LAAC | ≤ 0.2

Variant | one-hybrid fitness for binding parS DNA
RTFQ | 0.26
ITYR | ≤ 0.2
ERRH | ≤ 0.2
DRCM | ≤ 0.2
QDKT | ≤ 0.2
LMHW | ≤ 0.2
MSTI | ≤ 0.2
VQRN | ≤ 0.2
PLFM | ≤ 0.2
RQLN | 0.439
VSYP | ≤ 0.2
LQST | ≤ 0.2
QAKH | ≤ 0.2
EQYF | ≤ 0.2
KGHN | ≤ 0.2
HRMS | 0.341
SNHS | ≤ 0.2
CHSH | ≤ 0.2
KSFC | ≤ 0.2
RQCT | 0.846
YILP | ≤ 0.2
